# In PubChem BioAssay AID488969 (Vanderbilt High Throughput Screening Facility, 2010):
# The full ranking holds about 110,000 compounds; the median of “z-score” is about -0.1, and the highest 2% start at about 2. Some of the results follow.
# Target: Metabotropic glutamate receptor 8 (Rattus norvegicus) (UniProt P70579)
# Test: rat mGluR8 modulators via GIRK flux, primary screen, cell-based, thallium flux, HTS (AID 488969)
# Settings: HEK293 rat mGluR8, GIRK (G protein-gated inwardly rectifying potassium channel) thallium flux, FluoZin2; at 10 µM; stronger effect = higher value
# UniProt P70579, sequence (P70579 whole entry, looked up): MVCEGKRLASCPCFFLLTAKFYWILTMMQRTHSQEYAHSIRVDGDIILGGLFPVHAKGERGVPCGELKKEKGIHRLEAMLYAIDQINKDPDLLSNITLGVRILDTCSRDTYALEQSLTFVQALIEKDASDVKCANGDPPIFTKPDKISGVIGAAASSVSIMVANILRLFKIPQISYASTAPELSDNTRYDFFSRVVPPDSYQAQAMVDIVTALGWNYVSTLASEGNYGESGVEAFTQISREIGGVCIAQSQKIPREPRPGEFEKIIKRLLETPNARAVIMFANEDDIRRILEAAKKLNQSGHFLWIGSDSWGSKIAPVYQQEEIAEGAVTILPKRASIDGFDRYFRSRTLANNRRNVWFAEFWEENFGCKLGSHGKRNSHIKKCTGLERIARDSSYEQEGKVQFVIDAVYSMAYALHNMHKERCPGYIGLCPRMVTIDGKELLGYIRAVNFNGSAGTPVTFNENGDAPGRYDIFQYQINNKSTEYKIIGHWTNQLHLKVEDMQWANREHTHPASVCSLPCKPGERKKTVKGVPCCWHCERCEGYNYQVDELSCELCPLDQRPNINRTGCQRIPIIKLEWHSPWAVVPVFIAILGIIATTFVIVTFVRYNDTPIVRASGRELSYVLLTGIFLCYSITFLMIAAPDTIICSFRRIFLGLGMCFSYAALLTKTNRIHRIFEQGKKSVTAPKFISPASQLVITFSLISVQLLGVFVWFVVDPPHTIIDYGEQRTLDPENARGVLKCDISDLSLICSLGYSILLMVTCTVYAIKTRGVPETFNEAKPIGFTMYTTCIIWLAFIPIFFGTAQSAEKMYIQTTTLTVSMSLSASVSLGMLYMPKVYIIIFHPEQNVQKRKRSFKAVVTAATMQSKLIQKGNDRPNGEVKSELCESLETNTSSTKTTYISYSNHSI
row,SMILES,z-score
1,O=C(CN1CCCCC1)Nc1ccc(Br)cc1C(=O)c1ccccc1Cl,-0.309
2,CCCCn1c(O)c(C(C)=Nc2c(C)n(C)n(-c3ccccc3)c2=O)c(=O)[nH]c1=O,-0.414
3,Cc1ccc2c(c1)C1CN(C)CCC1N2C(=O)Nc1cccc(C(F)(F)F)c1 (stereo not drawn),0.445
4,CCOP(=O)(OCC)C(O)c1ccc(Br)cc1 (stereo not drawn),-0.0404
5,CN1/C(=C\C=Nc2ccccc2)C(C)(C)c2ccccc21,-0.319
6,CC1=NN(c2ccccc2)C(=O)C1/C=C1\C(=O)NC(=O)N(c2ccc(C)c(C)c2)C1=O (stereo not drawn),-0.517
7,CN(C(=O)Oc1ccc(Cl)c2cccnc12)c1ccccc1,-0.251
8,Cc1c(C(c2ccc(O)cc2)c2c(O)c3ccccc3oc2=O)c(=O)n(-c2ccccc2)n1C (stereo not drawn),-0.327
9,CCC(CC)NC1CCCCC1OC (stereo not drawn),-0.0362
10,Cc1ccccc1NP(=O)(Oc1ccccc1F)Oc1ccccc1F,-0.294
11,COc1ccc(-n2c(=O)[nH]c3ccccc3c2=O)cc1,0.343
12,N[C@@H](Cc1c[nH]c2ccccc12)c1nnc(SCc2ccccc2F)o1,-0.0332
13,Cc1ccc(N2C(=O)CC(=O)NC2=O)cc1,-0.347
14,Cc1ccc(-c2nc3ccccc3c(=O)n2-c2ncccc2C)cc1,0.068
15,COC(=O)CC1NC2CCCCC2NC1=O (stereo not drawn),-0.179
16,CC(=O)Nc1cc(C(=O)N2CCC3(CC2)OCCO3)ccc1Sc1ccc(C)cc1,0.27
17,O=C(CN1CCOCC1)Nc1ccc(Br)cc1C(=O)c1ccccc1,-1.1
18,CCOC(=O)c1[nH]c(C)c(C(=O)N2CCC3(CC2)OCCO3)c1C,0.012
19,Cc1nonc1-c1nc(-c2nonc2N)n[nH]1,-0.139
20,CCCCN1C(=O)/C(=C/C=C/c2ccco2)C(=O)NC1=S,0.136
21,Cc1ccc(CN2CCN(CC(=O)N3CCC4(CC3)OCCO4)C2=O)cc1,-0.217
22,CCN(CC)c1ccc(/C=C2/C(=O)NC(=O)N(Cc3ccco3)C2=O)cc1,0.102

row,SMILES,z-score
1,C(=NC12CN3CN(CN(C3)C1)C2)c1cccnc1,1.63
2,CCc1ccc(OCCCN=C(C)c2c(O)n(C)c(=O)n(C)c2=O)cc1,1.02
3,O=c1c2ccccc2nc(CN2CCOCC2)n1-c1ccccc1F,0.0334
4,CCCCN1C(=O)NC(=O)C2(Cc3c(nc4c(C)cccn4c3=O)N3CCc4ccccc4C32)C1=O (stereo not drawn),-1.19
5,CCC(=O)N1CCN(CCN=Cc2c(O)n(C)c(=O)n(C)c2=O)CC1,-0.0785
6,COc1cccc(C2(O)CCSCC2CN(C)C)c1 (stereo not drawn),-1.53
7,CCOC(=O)c1c(C)n(C(C)C)c2ccc(OC(=O)c3ccc(N4C(=O)CCC4=O)cc3)cc12,-0.0748
8,COc1ccc(C2NCc3ccc4c(c3-n3cccc32)OCO4)cc1O (stereo not drawn),2.45
9,CN1C(=O)C(C2c3ccccc3C(=O)N2Cc2ccc([N+](=O)[O-])cc2)C(=O)N(C)C1=O (stereo not drawn),0.0495
10,COCCNC(=O)c1c(NC(=O)c2ccco2)n(Cc2ccccc2)c2nc3ccccc3nc12,-0.316
11,Cc1cccc(-n2c(-c3ccco3)nc3ccccc3c2=O)n1,0.421
12,Cn1c(=O)cc(OCC(=O)N2CCN(C3CCCCC3)CC2)c2ccccc21,0.321
13,CCNC(=O)NC(=O)C(C)OC(=O)c1c(C)nn(Cc2ccccc2)c1Cl (stereo not drawn),-0.313
14,Cc1ccnc(-n2c(-c3ccco3)nc3ccccc3c2=O)c1,0.105
15,COc1ccc(N=C2SCCCN2C)cc1,0.297
16,O=c1c2ccccc2nc(N2CCCC2)n1-c1ccccc1,-0.184
17,COCCNC(=O)c1c(N)n(CCC(C)C)c2nc3ccccc3nc12,-0.128
18,CN(C)C1(c2nnnn2-c2ccc(Cl)cc2)CCCCC1,-0.982
19,Cc1nn(Cc2ccc(Cl)cc2Cl)c(Cl)c1C(=O)Nc1ccc(OC(F)F)cc1,-0.265
20,COc1ccc(C(=O)CC2(CC(=O)c3ccc(OC)cc3)C(=O)N(C)C(=O)N(C)C2=O)cc1,0.326
21,COC(=O)c1ccc(N2C(=O)CC(N3CCC(n4c(=O)[nH]c5ccccc54)CC3)C2=O)cc1 (stereo not drawn),-1.07
22,COc1cccc(N2CCN(Cc3cccc(Cl)c3)CC2)c1,-0.234

row,SMILES,z-score
1,CCn1c(O)c(C(=O)CC2NCCc3ccccc32)c(=O)n(CC)c1=S (stereo not drawn),0.848
2,CN1CCC(OC(=O)C2c3ccccc3Oc3ccccc32)CC1,1.83
3,CC(N)Cc1c[nH]c2ccc(Cl)cc12 (stereo not drawn),0.0126
4,O=[N+]([O-])c1cc2c(cc1CNCCc1ccc3c(c1)OCO3)OCO2,0.309
5,CCN(CC)c1ccc(CC2C(=O)N(C)C(=O)N(C)C2=O)cc1,0.254
6,O=Cc1c(C(=O)O)n(Cc2ccc(Cl)cc2)c2ccccc12,-0.764
7,CCN(CC)CCN=Cc1c(O)n(C2CCCCCC2)c(=O)[nH]c1=O,-0.091
8,CCCCN1CCC(O)(c2ccccc2)C(C(=O)c2ccccc2)C1 (stereo not drawn),0.729
9,CCNC(=O)C1OC(n2cnc3c(N)ncnc32)C(O)C1O (stereo not drawn),2
10,Cc1cc(O)c(CN2CCN(c3ccccc3)CC2)cc1C,-0.269
11,CNC(=O)OCCc1n(C)cc[n+]1C,-0.193
12,CCCOP(=O)(O)c1c([N+](=O)[O-])cc(C(F)(F)F)cc1[N+](=O)[O-] (tested in a mixture with another compound),0.344
13,CCCCCn1c(=O)c(C(=O)NCc2ccncc2)c(O)c2ccccc21,-1.2
14,COc1ccc(CCNCc2ccccc2F)cc1OC,0.874
15,CC1=C(C(=O)N2CCC3(CC2)OCCO3)C2(CCC(C)CC2)OC1=O (stereo not drawn),0.154
16,O=C(Nc1cccc(OC(=O)N2CCCCC2)c1)N1CCCCC1,-0.102
17,Cn1c(O)c(C(=O)c2ccccc2Cl)c(=O)n(C)c1=O,-0.534
18,COc1ccc(S(=O)(=O)NC(CC(=O)N2CCC3(CC2)OCCO3)C(C)C)cc1 (stereo not drawn),0.385
19,CCC(COC(=O)NC)NC(=O)Oc1cccc(C)c1 (stereo not drawn),-0.336
20,CN(C)c1ccc(/C=C/[N+](=O)[O-])cc1,-0.196
21,CC(c1ccccc1)n1cncc1C(=O)O (stereo not drawn),-1.5
22,CCN(CC)c1ccc(N=Cc2c(O)n(-c3ccc(OC)cc3)c(=O)[nH]c2=O)cc1,-0.432

row,SMILES,z-score
1,CCOC(C(=O)OCCCN(CC)CC)(c1ccccc1)c1ccccc1,0.0588
2,CC(C)Cc1nnc(NC(=O)CCC(=O)N2CCN(CCOC(c3ccccc3)c3ccccc3)CC2)s1,-0.181
3,O=P(O)(O)C12CC3CC(CC(C3)C1)C2,-0.0471
4,CCOP(=S)(OCC)SCC(=O)NC(C(=O)O)C(C)C (stereo not drawn),0.398
5,CCCCOc1nc2ccccc2c(=O)n1-c1ccccc1,-0.504
6,COc1ccc(C(C)=O)cc1CC(C(=O)c1ccc(Br)cc1)N(C)C (stereo not drawn),-0.102
7,C/C(CCc1c[nH]c2ccccc12)=N\O,0.0995
8,CN(C(=O)Oc1ccc(C(=O)c2ccc(Cl)cc2)cc1)c1ccccc1,0.116
9,CCC(=NCCN1CCCCC1)c1c(O)n(C)c(=O)n(C)c1=O,-0.0797
10,COC(=O)C(O)(c1ccc(N(C)C(=O)c2ccc(Cl)c(Cl)c2)cc1)C(F)(F)F (stereo not drawn),-0.855
11,O=P(/C(=N/O)N1CCCCC1)(N1CCOCC1)N1CCOCC1,0.0346
12,O=c1c2ccccc2nc(/C=C/c2ccc3c(c2)OCO3)n1-c1ccccc1,-0.658
13,O=C(c1ccc2c(c1)ncn2C1CCCCCC1)N1CCC2(CC1)OCCO2,-0.0497
14,CC(=O)c1ccc2c(c1)C1C(Cl)C(Sc3ccccc3[N+](=O)[O-])CC1C(c1ccccc1)N2 (stereo not drawn),0.121
15,Cc1ccc(-n2c(O)c(C=NC3CCCC3)c(=O)[nH]c2=O)c(C)c1,-0.0688
16,O=C(CNC(=O)c1ccccc1Cl)Nc1ccc(Br)cc1C(=O)c1ccccc1,-0.208
17,COc1ccc(-n2c(O)c(/C=C/C=Nc3ccccc3)c(=O)[nH]c2=O)cc1,-0.724
18,Cn1c(=O)cc(SCC(=O)N2CCC3(CC2)OCCO3)c2ccc(Cl)cc21,0.392
19,O=c1[nH]c(=O)n(-c2ccccc2)c(O)c1/C=C1/C(c2ccccc2)=Nc2ccccc21,0.732
20,COc1ccc(CCNCc2ccc(SC)cc2)cc1,0.481
21,COc1cc(CN2CCN(c3cc(C)ccc3C)CC2)ccc1O,-0.932
22,CC(=NC(C)c1ccccc1)c1c(O)[nH]c(=O)[nH]c1=O (stereo not drawn),0.0435

row,SMILES,z-score
1,O=C1/C(=C/c2ccc([N+](=O)[O-])cc2)N2CCC1CC2,0.00904
2,O=C(c1cccc(N2CCCC2=O)c1)N1CCC2(CC1)OCCO2,-0.18
3,CC1CCCCN1C(=O)c1ccc(N2CC3CC(C2)c2cccc(=O)n2C3)c([N+](=O)[O-])c1 (stereo not drawn),-0.624
4,Cc1nn(C)cc1/C=C1/CC2C3CC=C4CC(O)CCC4(C)C3CCC2(C)C1=O (stereo not drawn),-1.25
5,CC(=NCCC(c1ccccc1)c1ccccc1)c1c(O)n(C)c(=O)n(C)c1=O,-0.488
6,Cc1ccn2nc(S(=O)(=O)Nc3c(F)cccc3F)nc2n1,-0.257
7,O=C1CC(=O)N(c2ccc3c(c2)OCO3)C(=O)N1,-0.136
8,Cc1ccc(-n2c(O)c(C=NCCN3CCOCC3)c(=O)[nH]c2=O)cc1,0.016
9,CSc1ncc(Cl)c(C(=O)O)n1,0.0882
10,O=C(COc1ccc(S(=O)(=O)N2CCCCC2)cc1)N1CCN(Cc2ccccc2)CC1,-0.131
11,O=c1[nH]c(=O)n(-c2cccc(Cl)c2)c(O)c1/C=N/c1ccccn1,-0.309
12,COc1cc(/C=N/NP(=S)(c2ccccc2)c2ccccc2)ccc1O,0.964
13,COc1ccccc1N(CC(=O)NC1CCCCC1)C(=O)c1cnn(C(C)C)c1,0.21
14,NC(=O)CN1C2CCC1CC(NC(=O)C1CC1)C2 (stereo not drawn),-0.789
15,CCOC(=O)[C@]1(C#N)[C@@H]2C=CC(C(C)=O)=CN2[C@@H](C(N)=O)[C@@H]1c1ccsc1,0.236
16,C=CCn1c(O)c(C(C)=NC2CC2)c(=O)[nH]c1=O,0.18
17,COc1ccc(NC(=O)CN2C3CCC2CC(O)(c2cccnc2)C3)cc1OC (stereo not drawn),-0.531
18,COCCOC(=O)C1=C(N)Oc2c(c(=O)oc3ccccc23)C1c1ccncc1 (stereo not drawn),-0.453
19,C[C@H]1CCC[C@@H](O)CCC/C=C/c2cc(O)cc(O)c2C(=O)O1,-0.472
20,Cc1ccc(/C=C2/C(=O)NC(=O)N(C)C2=O)cc1,1.07
